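All cell lines were grown in 96-well plates and treated with compound for 48 hours. At the GI50, growth is halved. Definition used: TGI = concentration required for complete inhibition of growth.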 Peptide text beside a SMILES is read from it. * marks the point of attachment. Boc = CC(C)(C)OC(=O)*
Test system: NCI-H322M lung
Assay: DTP human tumour cell line panel, 48 h

Structure (SMILES)	GI50 [µM]	TGI [µM]
CC(=O)N[C@@H](Cc1ccc(OP(=O)(O)O)cc1)C(=O)N[C@H]1CCC(=O)N2CCC[C@@H](C(=O)NCc3ccc(O)cc3)N2C1=O	> 25	> 25
Cc1cc2c(C(C)C)c(O)c(O)c(C=O)c2c(O)c1-c1c(C)cc2c(C(C)C)c(O)c(O)c(C=O)c2c1O (tested in a mixture with another compound)	0.998	10.3
CCOC(=O)c1c(C(F)(F)F)oc2c1ccc1nc3nonc3nc12	–	76.9
COc1cc(NCc2ccc3n2-c2ccccc2OC3)cc(OC)c1OC	–	> 100
CC1OC(OC2C(O[C@@H]3C[C@@H]4CC[C@@H]5[C@H](CC[C@]6(C)[C@@H]7[C@H](C[C@@H]56)O[C@]5(CC[C@@H](C)CO5)[C@H]7C)[C@@]4(C)C[C@H]3O)OC(CO)C(OC3OC(CO)C(O)C(O)C3O)C2O)C(O)C(O)C1O (some centres undefined)	–	4.92
COC1=CC(=O)c2ccccc2C1(C)C1=NC(C)(C)CO1 (centres undefined)	–	> 100
C[C@H](O)C(=O)SC[C@H](NC(=O)CC[C@@H](N)C(=O)O)C(=O)NCC(=O)O	–	> 100
C=C=[CH][Sn]([c]1ccccc1)([c]1ccccc1)[c]1ccccc1	1.7	3.27
COc1ccc(NC(=O)O[C@H]2[C@H](O[C@H]3[C@@H](O)COC(O[C@H]4C[C@H]5[C@@H]6CC=C7C[C@@H](O)CC[C@]7(C)[C@H]6CC[C@]5(C)[C@H]4[C@H](C)C(=O)CCC(C)C)[C@@H]3OC(C)=O)OC[C@@H](O)[C@@H]2O)cc1 (some centres undefined)	3.92	30.9
CCN(CC)c1ccc2nc3c4ccccc4c(=NC(=O)c4ccccc4-c4c5ccc(N(CC)CC)cc5[o+]c5cc(N(CC)CC)ccc45)cc-3oc2c1	2.45	9.75
CCOC(=O)C(CC(C)C)NC(=O)C(Cc1ccccc1)NC(=O)CNC(=O)OC(C)(C)C (stereo not drawn) (Boc-Gly-Phe-Leu-OEt; configuration not given here)	–	57.7
O=C1C=C(Nc2ccccc2C(=O)CC(=O)C(=O)Nc2ccc(Cl)c(Cl)c2)c2ccccc2C1=O	–	> 100
COC(=O)c1ccc(NCc2cc(O)ccc2O)cc1O	–	26.3
c1ccc2nc3cc4c(cc3nc2c1)NC12CCCCC1CC1=C(CCCC1)N42 (centres undefined)	–	> 10
CC[C@@]1(OC(=O)CN)C(=O)OCc2c1cc1n(c2=O)Cc2cc3c(N)c4c(cc3nc2-1)OCO4	0.00746	–
COc1ccccc1OC(=O)/C=C/c1ccccc1	–	> 100
C1=c2ccccc2=C2C(=C(c3ccccc3)C(c3ccccc3)=NN2c2ccccc2)S1	–	> 100
Cn1c(N)c(-c2c3ccccc3nc3ccccc23)c(=O)n(C)c1=O	–	> 100
O=[N+]([O-])c1ccc(N2N=C(c3ccc4ccccc4c3O)CC2c2ccc(Cl)cc2Cl)c([N+](=O)[O-])c1 (centres undefined)	–	> 100
COc1ccc(Nc2nc3ccccc3nc2C(=O)O)cc1	–	> 100
COc1cc(C2C(Cl)C(=O)N2NC(=O)Cc2ccccc2)ccc1O (centres undefined)	–	> 100
CCCOCN1COCN=C1NC#N	–	> 100
COC(=O)C(=O)C1CCCCC(C2=NC3NN=C(N)N3C2=O)C1=O (centres undefined)	–	> 100

Structure (SMILES)	GI50 [µM]	TGI [µM]
CCOC(=O)c1cn2c([nH]c3ccccc32)c(C#N)c1=O	–	> 100
O=C(CCc1cccc(O)c1)NCCc1cccc(OCc2ccccc2)c1	–	76.1
Cc1ccc(-c2cc(/C=N/O)on2)cc1	82.5	> 100
O=C(/C=C/c1ccc(Cl)c(Cl)c1)C1CCC(Cl)CC1 (centres undefined)	–	> 100
CCOc1cc(NC(C)=O)ccc1C(=O)NN1C(=O)CSC1c1ccc(O)c(OC)c1 (centres undefined)	–	> 100
Oc1ccc2ccccc2c1Cc1c(O)ccc2ccccc12	–	35.7
O=c1cc(-c2nc3ccccc3[nH]2)[nH]c2nc(-c3nc4ccccc4[nH]3)cc(-c3ccc(Cl)cc3)c12	–	> 100
Cc1cc(=O)[nH]c2c3c(ccc12)OC(C)(C)C=C3	–	> 100
COc1ccc(-n2cc(-c3ccc(OC)c(OC)c3)nc2SCc2ccccc2)cc1Cl	29.5	> 100
OC1(c2ccc3ccccc3c2)c2ccc3ccccc3c2C2=NCCN21 (centres undefined)	–	> 100
CO[C@H](c1ccccc1)[C@H](C)N(C)c1ccc2ccccc2c1C1=NC(C)(C)CO1	–	52.7
CCOC(=O)C(Cc1ccc(OC)cc1)C(=O)OCC	10.3	23.5
CC(=O)/C=C/C1=C(c2ccsc2)c2ccccc2CC1	27	88.1
COc1ccc(/C(Cl)=C/c2ccc(Cl)c(Cl)c2)cc1	–	> 100
COc1cc2c3c(c1O)C1(C=CC(=O)C=C1)CC3N(C)CC2 (centres undefined)	–	21.8
c1ccc2c3nnc(c2c1)SCCSCCCSCCS3	–	> 100
CN(C)/C=N/S(=O)(=O)c1nn2c(C=O)c(-c3ccc([N+](=O)[O-])cc3)nc2s1	–	> 70.4
O=C(/N=C/c1c(O)c2ccccc2oc1=O)NC1CCCCC1	–	> 100
CC(C)(C)C(=O)[CH-]C(=O)C(F)(F)C(F)(F)C(F)(F)F.CC(C)(C)C(=O)[CH-]C(=O)C(F)(F)C(F)(F)C(F)(F)F.[O-]CC1OC(O)C(O)C(O)C1O.[O-]CC1OC(O)C(O)C(O)C1O.[Ti+4]	> 100	> 100
Nc1cnc2c(c1)c(=O)nc1n2CCS1	–	> 100
C=CCC1=CC2(OC)C(=O)C(OC)(OC)C1C1C(OC)(OC)C(=O)C(OC)=CC12CC=C (centres undefined)	–	> 100
O=C(NO)c1cnc(N2CCN(S(=O)(=O)c3ccc4ccccc4c3)CC2)nc1	0.138	3.26
Cc1cc(=O)[nH]c(CNC(=O)Cc2ccccc2)n1	–	> 100

Structure (SMILES)	GI50 [µM]	TGI [µM]
CCS/C(Nc1ccccc1)=C(\C#N)C(=O)N/N=C/c1ccc(Cl)cc1Cl	6.87	> 100
CCCCCCCCCC(=O)CC(=O)c1c(O)cc(O)cc1O	–	> 75
C[N+](C)(Cc1ccc(NC(=O)CCCC(=O)ON2C(=O)CCC2=O)cc1)c1ccccc1	–	60.4
CC(C)Cc1cccc(C(C)C)c1NC(=O)CCC(=O)N/N=C1\C(=N/NC(=O)CCC(=O)Nc2c(C(C)C)cccc2C(C)C)C(c2ccc3c(c2)OCO3)Oc2ccccc21 (centres undefined)	–	> 100
N#CC12Cc3ccc4c(c3-c3cccc(c31)CCN2C(=O)c1ccccc1)OCO4 (centres undefined)	–	> 100
COc1ccc2c(c1)c1c3c(ccc4ncn2c43)N(CCN(C)C)CCN=1	–	1.99
N#CC(C#N)=Cc1ccc(-c2ccc(-c3nc4ccccc4o3)cc2)o1	85.3	> 100
CC1(C)O[C@@H](CP(c2ccccc2)c2ccccc2)[C@H](CP(c2ccccc2)c2ccccc2)O1	–	60.3
N#Cc1c(Oc2ccc(F)c(NC(=O)Cc3cccc(C(F)(F)F)c3)c2)ccc2nc(NC(=O)C3CC3)sc12	1.92	> 100
COC(=O)Nc1nc2ccc(Sc3ccccc3)cc2[nH]1	0.844	38.6
COC(=O)c1cc(C)n(NC(=O)OC(C)(C)C)c1C	–	> 100
COc1cccc(/C=C2\C(=O)N(C(=O)Cc3ccccc3)N=C2C)c1	–	> 100
CCCC(=O)OCC(O)CO (centres undefined)	–	> 5000
CCOC(=O)CCc1c(C)[nH]c2c(C)c3c([nH]c4ccc(Cl)cc43)c(C)c2c1=O	–	> 100
COc1ccc(-n2sc(=O)n(Cc3ccc(COC(=O)C(C)c4ccc(CC(C)C)cc4)cc3)c2=O)cc1 (centres undefined)	7.8	14.5
O=C1/C(=C\c2c(-c3ccccc3)nn(-c3ccccc3)c2O)C(c2ccccc2)=NN1c1ccccc1	–	> 100
CP(C)C.[Ag][I]	–	> 100
c1cnc2c(c1)Nc1cnncc1S2	–	> 100
CC(=O)OCC(=O)C1(O)C(C)CC2C3C=C(C)C4=Cc5c(cnn5-c5ccccc5)CC4(C)C3C(O)CC21C (centres undefined)	2.69	10.5
O=c1c2ncn(CCCl)c2n(-c2ccccc2)c(=S)n1-c1ccccc1	–	> 100
CCOC(=O)C1CC/C(=C(/C#N)C(=O)OC)N1 (centres undefined)	–	> 100
N#CSCC(=O)c1ccc(Cl)cc1	2.93	> 34.6
CC(C)[O-].CC(C)[O-].[O-]c1cccc2cccnc12.[O-]c1cccc2cccnc12.[Ti+4]	38	> 100

Structure (SMILES)	GI50 [µM]	TGI [µM]
O=c1cc(-c2ccccc2Cl)[nH]c2cc3c(cc12)OCO3	–	> 100
Cc1nc(N)sc1C(=O)/C=C/c1ccc([N+](=O)[O-])cc1	–	> 100
CC(OCc1ccccc1)C(NC(=O)C1CSSCC(NC(=O)C(Cc2ccccc2)NC(=O)OCc2ccccc2)C(=O)NC(Cc2ccccc2)C(=O)NC(Cc2cn(C=O)c3ccccc23)C(=O)NC(CCCCNC(=O)OCc2ccccc2)C(=O)NC(C(C)OCc2ccccc2)C(=O)N1)C(N)=O (centres undefined)	–	> 100
COc1cc(C2C(C#N)=C(N)Oc3cc4c(cc32)OCO4)cc2c1OCO2 (centres undefined)	2.47	> 100
CC1(C)CC2CC(C)(CN2c2ncnc3ccc(Br)cc23)C1 (centres undefined)	12.8	25.4
O=[N+]([O-])c1cc(/C=N/NS(=O)(=O)c2ccc(F)cc2)c(O)c([N+](=O)[O-])c1	–	> 100
CNC(=O)OCCN1c2ccccc2Sc2ccccc21	–	> 100
COc1ccc(C(=O)c2ccc(-n3c4ccccc4c4ccc5c(c43)C(=O)C=CC5=O)cc2)cc1	–	18.4
COc1cc(/C=C/C(=O)c2ccc(Nc3nc(Nc4ccccc4)nc(Nc4ccc(Cl)cc4)n3)cc2)cc(OC)c1OC	> 32.5	> 32.5
CN1CCN(c2ccc3nc4c(nc3c2C(F)(F)F)C(=O)c2ncccc2C4=O)CC1	1.56	2.96
Cc1sc(/N=C2/NC(=O)CS2)nc1-c1nc(/N=C2/NC(=O)CS2)sc1C	30.9	> 50
CC12OC3CC(O1)C1(C=O)C4CCC5(C)C(c6ccc(=O)oc6)CCC5(O)C4CCC1(C3)O2 (centres undefined)	–	2.12
NNC(=S)N/N=C/C(Cl)=C(\Cl)C(=O)O	–	> 100
CC(=O)O/C=C\OC1CCCC1	–	> 100
CCOC(=O)CC(N1CC1)N1CC1	–	> 10
COC(=O)/C(=N\O)C(C(=O)C=C(C)C)C(=O)C(=O)Nc1ccccc1C (centres undefined)	–	> 100
CCCCCC(=O)Cc1cc(OC)cc2c1C(=O)Oc1cc(O)c(C(=O)O)c(CC(=O)CCCCC)c1O2	–	> 100
Nc1ccc(C(=O)NN2C(=O)C(Cl)C2c2cccc([N+](=O)[O-])c2)cc1 (centres undefined)	–	29.5
COC(=O)C1=Cc2c(OC)cc(OC)c(OC)c2[C@H](c2cc(OC)c(OC)cc2OC)C1C(=O)OC (some centres undefined)	–	> 100
C/C(=N\Nc1cccc(Cl)n1)c1ccccn1	0.479	> 100
O=[N+]([O-])c1ccc(-c2ccccc2)c([As](=O)(O)O)c1	32.8	> 100
COc1ccc(C2C(Cl)C(=O)N2NC(=O)c2ccc(N)cc2)cc1OC (centres undefined)	–	27.8
Oc1[nH]c2ccc(Cl)cc2c1/C=c1/ccc2c(c1)N=C(c1cc(F)cc(F)c1)N=2	> 100	> 100

— PubChem BioAssay (NCI)
